# Results taken from the supplement of paper PMC11417369.
# ± gives the standard deviation of the averaged measurements. The list shows a part of the results.
# System: PfAP2-I AP2 domain 3 (GST-tagged)
# Experiment: gcPBM binding intensity (ln(normalized median fluorescence intensity)); higher = stronger DNA binding
# How it was run: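 GST-fused DNA-binding domains of P. falciparum, expressed in E. coli, were applied at about 25 μg on average for 1 h to an Agilent 4 × 180k array of primer-extended double-stranded 36-bp intergenic genomic probes and negative controls. Binding intensity is the highest Masliner-normalised natural-log median intensity across replicate spots of either probe orientation, measured with Alexa488 anti-GST antibody and a 488 nm scan.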
row,Sequence,gcPBM binding intensity (ln)
1,TATTTTACGTATTGTTGTACTTGAAACAAATATACA [XGTACX_site8778],7.84 ± 0.35
2,TTTTTTCAATTGGAAATTATTTTACAATGAAGGGTA [XGTACX_negctrl_site469],7.69 ± 0.3
3,GATATATATACATGTGTGCACCATGCAACTTGTTTT,10.4 ± 0.13
4,TATAAACATAAATATACACACAAACATATATGTATT [CACACA_site8324],7.87 ± 0.25
5,AGACATATAATATATACACACATATATATATATATA [CACACA_site1066],9.18 ± 0.31
6,CGTTTCCCCAATGGTTGTACAATATATATATATATA [XGTACX_site8641],9.46 ± 0.12
7,TTGTGTTTTATTATTTTATTATTACTATTATAATGT [GTGCAC_negctrl_site484],7.88 ± 0.61
8,TAAAAATGGGTATGTACACACTTTATTTTTAATACA [CACACA_site5404],7.73 ± 0.16
9,ATAAAACATAAATACATACACACATAATATATATTA [CACACA_site110],7.82 ± 0.21
10,ACATATTTAAAAACATGTACAAATATATTTATAATT [XGTACX_site661],7.67 ± 0.47
11,AAGGAAGATATATACACACATACAAATATATATATA [CACACA_site2181],9 ± 0.11
12,TGTAATGTTTACAACACACAAATTAGAAATACAAAA [CACACA_site6924],7.76 ± 0.68
13,TATCTTATTTTATCTCGTACATAAAATTAAAAAATT [XGTACX_site3636],7.78 ± 0.17
14,TTAAATTACTAATGTGCACACATACTAACGTTTAAA [CACACA_site3573],9.93 ± 0.014
15,TTTTATTTATTATTTACACACACGTAGGTGTCCATA [CACACA_site430],7.89 ± 0.62
16,AATATGTATCCATACACACATACATTTTATTTGCAA [CACACA_site874],7.91 ± 0.73
17,CATTTTATTTTAATATGTACTTAAAGAAAAAAAATT [XGTACX_site7670],7.87 ± 0.31
18,TTTTGACATTAATTACTATAGTGTTCTTATAAAATT [TGCATGCA_negctrl_site589],7.76 ± 0.64
19,AATACATAAAAATAAAAATAAAATATAACTAATATG [CACACA_negctrl_site186],7.46 ± 0.67
20,AAAACTATAATGAATAGTACATAAAAATGGATATAT [XGTACX_site6056],7.93 ± 0.73
21,AATCGATAAAATGTTGTGCACATATTTTTATATTTA [GTGCAC_site9651],10.5 ± 0.22
22,TTATACATATATTTAACACACATTTTATAAAGTGCC [CACACA_site1314],7.95 ± 0.54
23,TATATACACATGCGCACACACAAGTGGGAAATTTGG [CACACA_site6930],8.45 ± 0.78

row,Sequence,gcPBM binding intensity (ln)
1,AATATTTGCCTATGTTGTACTGACATTTTTTTAAGT [XGTACX_site6836],7.91 ± 0.54
2,TAATAATCCACAAGCACACACACACCCATATATATA [CACACA_site1267],8.51 ± 0.61
3,TTAAGGATCCACGATACACACATATCATTCAACAAA [CACACA_site1924],7.57 ± 0.54
4,ATATATAATATATGATGTACTTAATAATTTTTTTTT [XGTACX_site5715],7.41 ± 0.3
5,TTAACCTTTATATAATACGTATCATCCTCATATATA [CACACA_negctrl_site86],8.02 ± 0.71
6,ATATAAAATCAACAAAAAAAAAAAATATATATATAT [XGTACX_negctrl_site251],9.26 ± 0.23
7,TGTATATATTTGTGCACACCAAAGTTTGATTTTATT [CACACA_site1860],10.9 ± 0.099
8,TTATATTTTTTAATTACACACAATTCTTATAAATAT [CACACA_site7870],7.72 ± 0.52
9,TATTATAACTAAAAAAATCACATAAAATACTTTATT [CACACA_negctrl_site2],7.24 ± 0.41
10,GTTATTAAAAACGGGTGTACACATATATAAATATAT [XGTACX_site1234],8.28 ± 0.52
11,TATTTATTATAAAAATTGTATAAAATAATAATGCTC [GTGCAC_negctrl_site456],7.71 ± 0.45
12,AAATTGGGGCTTGTTACACACTTAGTGTGAGTTCTA [CACACA_site6417],7.84 ± 0.58
13,ATTTATAATATGTATACACACACATATATAAATATA [CACACA_site8729],7.67 ± 0.49
14,TATAATCATAAATACACACACATATATATATATATA [CACACA_site5224],9.15 ± 0.49
15,TTCTCATCCTTACATACACACACATATATATATATA [CACACA_site7914],9.49 ± 0.25
16,GTTCAATTATTTTTATGTACATATATTTTTTTCTTT [XGTACX_site2505],8.3 ± 0.49
17,TAAAAAAAAAAAAAAGTACACACTTATAAAATATTA [CACACA_site872],7.77 ± 0.38
18,ATATATTTTTTGAATACACACATATTATATGTAATA [CACACA_site1256],7.81 ± 0.57
19,ACAAATGAGATTATATGTACACATAACAAATTTACA [XGTACX_site3496],7.83 ± 0.26
20,GTTACACCAACAAACACACACACACCGACACCCAAA [CACACA_site5361],8.32 ± 0.014
21,AAATGTAAAATTTTATGTACATATATTTATATAATA [XGTACX_site3737],7.78 ± 0.33
22,ATGTTTTATAAAAGGCGTACACATATATTTAAGTAA [XGTACX_site6231],8.495 ± 0.064
23,TTTATTTATTTAATTACACACGAACATATAACCATT [CACACA_site7952],8.03 ± 0.5

row,Sequence,gcPBM binding intensity (ln)
1,TTCATTCTATAAAACACACAAATATTTTTGTATCCC [CACACA_site6458],7.71 ± 0.69
2,ATATATTTTAATGATACACACAAGAAATAAAATTAC [CACACA_site5671],8.01 ± 0.46
3,ATAGAACAATTCAGAAGTACATAAAAAGAAAAATTT [XGTACX_site3015],7.75 ± 0.79
4,TTGGATGATTAAGGGGGACACACGTTTATATATTTA [CACACA_site338],8.82 ± 0.32
5,TTTTGTGATCTTACCACCTTTCATAATATTAATAAA [GTGCAC_negctrl_site360],8.3 ± 0.53
6,TTTCACAAATGATATAGTACTTTTTATTATTAACAT [XGTACX_site7976],7.72 ± 0.56
7,ACTTTTTTAATGTTACGTACACATAAATAATAATTA [XGTACX_site8092],8.35 ± 0.2
8,GTACACATATAGTAATAATTTTATTATATTTTTTTG [CACACA_negctrl_site843],7.53 ± 0.64
9,ATTTTAATATAAAATACACACTACTATTATAAATAT [CACACA_site4917],7.53 ± 0.56
10,ATTCTTATTTAAAGGTGTACTCTTAAACAGATTTTA [XGTACX_site3526],7.79 ± 0.43
11,CACCCCCACAGACACACACACACACCCACATATATA [CACACA_site365],8.85 ± 0.014
12,TTCATAAAATGATATTGTACAAATAAATAATAGTAT [XGTACX_site819],8.1 ± 0.52
13,AGATTTAAATTTATATGTACATAATATGGGCGTATA [XGTACX_site6631],8.07 ± 0.29
14,GGTCTTCTTAATATACTGCACTGTATACGTATATAA,11 ± 0.61
15,TGTAGATTTTGTAACACACACATATATATACATATA [CACACA_site2405],7.71 ± 0.41
16,CTTATTATTATATGGGTGCTCATATTTTTCTTTTTT [GTGCAC_site9723],8.59 ± 0.36
17,ACAAACATTAGGGAAGCATGCAATATTTTTTTACAT [TGCATGCA_site372],7.93 ± 0.57
18,ATTATATACATATATATACACACGTAGTTTCTATTT [CACACA_site8697],7.66 ± 0.51
19,ATATATATATATAAATGTACATTTTTCAATAGTTTT [XGTACX_site7449],9.04 ± 0.33
20,TATAAATAAATAGATACACACATATATATAAATACA [CACACA_site155],7.55 ± 0.5
21,TACTTTTTATTTTCTTGTACTTAATTGTCCAGATTT [XGTACX_site4334],7.9 ± 0.73
22,TAGATATATAGACACACACACATTAATACCTATATT [CACACA_site7605],8.1 ± 0.22
23,TGTCATTTAATTTTTTGTACGAAAAAAACATATAAA [XGTACX_site4952],8.07 ± 0.16

row,Sequence,gcPBM binding intensity (ln)
1,AGTTGTTTTAATAATGCATGTTATTTTATTTTAATA [TGCATGCA_site168],7.99 ± 0.81
2,GTATATATATATGTATATATTTTATTTTATTTTTAT [CACACA_negctrl_site1439],7.43 ± 0.35
3,TATATATATAGACACACACACACATATATATATATA [CACACA_site9366],9.16 ± 0.3
4,GTACATAGATTGTACATACACACCTATATAAATATC [CACACA_site3225],7.84 ± 0.42
5,TTTTTTTTGTTCTATACAATTATAAAAATAAAATAT [XGTACX_negctrl_site53],7.58 ± 0.43
6,AATATATGGTTCCATGATATTAAATTCAATTTAATG [CACACA_negctrl_site605],7.37 ± 0.62
7,TAATATCATTTATGTAGTACTATAACAAGAACTATA [XGTACX_site3618],7.65 ± 0.17
8,AAAAAAAAAAAGCACACACACATATGAGTATATATA [CACACA_site4683],8.03 ± 0.15
9,GCTTATATAAAAAGTTGTACAACCGAATCTTTTACA [XGTACX_site2119],8.09 ± 0.32
10,TACACAAGCAGACACACACACATATATATATATATA [CACACA_site1270],9.36 ± 0.35
11,AATGTAAAAGTAAACACACACATATATAAATACATA [CACACA_site5386],7.63 ± 0.54
12,AAGGGGTAAAGAAAAACACACAAAAAATAAAAATAT [CACACA_site361],8.24 ± 0.19
13,AAGAGAAAAATATATACACACACATAAATATATACA [CACACA_site8573],7.62 ± 0.49
14,TGCATACTTTTGTAAGTGCATAAAATCGTACCATGC,10.2 ± 0.36
15,GAAATAATTCGATGTGCATGTAACGTTTCCCCAAAG [TGCATGCA_site122],8.58 ± 0.54
16,GATGAAAATAGAAATACACACTAAAAAATAAAATTA [CACACA_site4764],7.56 ± 0.69
17,AATTAAAAAAAATACACACACACATACACATATATA [CACACA_site3298],7.88 ± 0.21
18,CGTATTTATATAATTACACACCATATTATAATTATT [CACACA_site3760],8.04 ± 0.41
19,CCAAAAAAAAAAAAAAGTACATAAAAACAAGAGAAT [XGTACX_site3037],8.23 ± 0.58
20,GAAAGGATATATATATATATATATATAATACATTTC [GTGCAC_negctrl_site677],8.16 ± 0.49
